In the supplement of paper PMC3334620:
Whole data set: some 33,000 sequences, median “E-score (-0.5 to 0.5)” near -0.013, cut for the highest 2% near 0.3. The list shows a part of the results.

What follows are sequences tested against T1, Msn1 (UniProt P22148) (assay: PBM E-score (8-mer binding enrichment) (E-score (-0.5 to 0.5)); higher = stronger / more preferred TF binding; most listed sequences are background and not binding sites). Details: protein concentration: 200 nM; construct: GST-full length.
T1 sequence: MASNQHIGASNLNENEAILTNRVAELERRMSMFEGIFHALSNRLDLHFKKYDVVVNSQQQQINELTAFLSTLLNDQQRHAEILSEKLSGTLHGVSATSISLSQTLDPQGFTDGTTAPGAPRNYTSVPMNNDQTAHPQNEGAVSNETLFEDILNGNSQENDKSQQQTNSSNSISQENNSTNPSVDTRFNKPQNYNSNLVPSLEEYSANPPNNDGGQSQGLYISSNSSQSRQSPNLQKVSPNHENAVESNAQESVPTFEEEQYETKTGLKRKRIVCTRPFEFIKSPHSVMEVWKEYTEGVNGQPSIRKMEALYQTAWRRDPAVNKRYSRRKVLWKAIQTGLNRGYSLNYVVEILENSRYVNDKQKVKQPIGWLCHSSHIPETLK
Outline: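 Masliner-normalised scans of fluorescent anti-GST signal were the basis for scoring. That signal came from GST-tagged yeast transcription factors applied at about 100-200 nM to double-stranded universal all-10-mer Agilent arrays on fresh or once-stripped slides. Each ungapped eight-base word, pooled with its reverse complement, received an E-score from the Universal PBM Analysis Suite.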

Row | Sequence | PBM E-score
1 | GAATGAAA | 0.124
2 | ACTAGATG | 0.00237
3 | CGGTGTCA | 0.0418
4 | CTTTTCGC | 0.0851
5 | TCAAAACA | 0.177
6 | TCCGACAA | 0.372
7 | CCTGCCAC | -0.298
8 | TATAAGAA | 0.027
9 | CGGGTGAG | -0.247
10 | ATGCTCTA | -0.131
11 | AATTTGTC | 0.488
12 | ATTGTGCA | 0.0409
13 | CTCTCAAG | -0.0939
14 | GAAGTCAC | -0.0737
15 | AGCTCTTC | -0.0398
16 | ATCGACTG | -0.115
17 | CTCCCCCC | -0.407
18 | TATTTACA | 0.018
19 | ATTCGGAG | 0.0972
20 | CCTTGTAG | -0.167
21 | GGGCCCGA | -0.189
22 | CATAATGA | -0.0532
23 | CGATGGTC | -0.0443
24 | CAGCAACA | 0.124
25 | AGGCACCC | -0.241

Row | Sequence | PBM E-score
26 | CCGGGCAC | 0.0492
27 | ATCAATCG | -0.00559
28 | ACATATTG | 0.321
29 | AAGGCAGC | -0.0841
30 | CCAGAAAG | 0.024
31 | CACCCGGG | -0.134
32 | CAAGAGTG | -0.104
33 | CGTCAACA | -0.0583
34 | AGGTGATA | -0.184
35 | AGCTTAGA | 0.0964
36 | TACGAAGA | 0.0399
37 | AGCTTACT | 0.0048
38 | GGAAGGCC | -0.281
39 | GTGCAAAC | -0.063
40 | CATATGCA | 0.129
41 | CCTGCTTC | -0.172
42 | GTGTAGCA | -0.175
43 | ACCCAAAG | -0.00541
44 | CCTGTCCG | 0.117
45 | CGGGAGCC | -0.233
46 | ATCTCGGC | -0.0545
47 | GCCCATTA | -0.203
48 | ACAATAAG | 0.0668
49 | CAAAAAAC | 0.204
50 | GACAAACC | 0.445

Row | Sequence | PBM E-score
51 | ACTTGGGG | -0.205
52 | GCAACTGC | 0.0155
53 | CCAGAGAA | -0.0537
54 | AATGCCCA | -0.118
55 | TACAGAGA | -0.0201
56 | CGTTCCAG | -0.136
57 | CGCCAGCC | -0.336
58 | ACACTGGC | 0.0665
59 | GGGAAGCA | -0.234
60 | CGGCGGAC | -0.0145
61 | CTTCTTGC | -0.0305
62 | ACGCCCCA | -0.14
63 | CGCGGCCG | -0.143
64 | GTGCTTCA | 0.0242
65 | AGTATAGA | 0.0581
66 | AATGTACG | 0.274
67 | CCTTCTAC | -0.216
68 | AAGACAAT | 0.409
69 | ACAGTTCC | 0.0691
70 | CGAGAACA | 0.0345
71 | GATATGCC | -0.0135
72 | CCGAGCAA | -0.183
73 | CAGATAGA | 0.0362
74 | CCGCACCA | -0.103
75 | CCGTGGTC | -0.245

Row | Sequence | PBM E-score
76 | GGAAGCCA | -0.291
77 | CGTAGTGC | -0.118
78 | CCGAAACG | 0.0121
79 | ATAGGCTC | -0.101
80 | CCAAGAGC | -0.158
81 | CCGGGAGA | 0.0505
82 | GTCTTAAC | 0.224
83 | CAATTTAC | 0.149
84 | CCCCAGTA | -0.194
85 | TAAACTAA | 0.107
86 | CGAAGAAA | 0.124
87 | AGTGATCC | -0.0695
88 | ACGGGTGA | -0.0427
89 | CGTCTTCA | -0.00289
90 | GCCCACGC | -0.264
91 | AAATGTAC | 0.371
92 | ACGAGTCA | -0.131
93 | CATAATTC | 0.107
94 | TCACACCA | 0.0145
95 | GACGACTA | 0.0147
96 | ACACTATC | 0.0359
97 | AGCCGGTC | -0.0936
98 | CCTCTCCA | -0.254
99 | CAGAATGC | -0.094
100 | AAATTCCG | 0.291

Row | Sequence | PBM E-score
101 | TGCCGGAA | 0.2
102 | GATCCACA | -0.0112
103 | GCTGTTTA | -0.0101
104 | AGAAGTCG | -0.0345
105 | CATGTCTA | 0.268
106 | GTGGGCTA | -0.0795
107 | CCCACCGG | -0.134
108 | GTGGATGA | -0.0859
109 | ACATGCAT | 0.164
110 | CGCCTGTA | 0.0731
111 | ATCCGGAG | 0.143
112 | AAACAATG | 0.087
113 | AATAAATG | 0.209
114 | CGGGCTGA | -0.283
115 | AGACTTAA | 0.102
116 | CGGCGAAA | 0.223
117 | AATCTTAA | 0.173
118 | AGAAATAA | 0.077
119 | GCCATAGA | -0.127
120 | AATGGTGA | 0.00797
121 | TACGCTGA | 0.0614
122 | ACAGGAGT | -0.102
123 | AGCACGGC | -0.0863
124 | ACTTAGAA | 0.0179
125 | GAGTCCCC | -0.357

Row | Sequence | PBM E-score
126 | ATCCAATC | -0.0229
127 | CAGCCTGA | -0.0899
128 | CCCATAAA | -0.0692
129 | ACTTTTAC | 0.204
130 | TTATGGAA | -0.0572
131 | GTCAGAGA | 0.0303
132 | ATGCAAAC | -0.207
133 | ATTGACGA | 0.0543
134 | CGGTGTAA | -0.0479
135 | AAAGTATT | 0.153
136 | CACGCGCC | 0.0461
137 | GGTATAGA | 0.0249
138 | ATTCGATC | 0.0513
139 | ACTGAAGT | -0.0723
140 | GACAGGCA | 0.0847
141 | GTGGGTAA | -0.0702
142 | ATCATAAG | 0.15
143 | TAGGCCAA | 0.0699
144 | AGCCCCGA | -0.071
145 | GAGCAGGC | -0.0987
146 | GTTGGGAA | -0.00649
147 | GAACAGAC | 0.142
148 | GGGATATA | 0.0266
149 | AGCCGGGC | -0.258
150 | CGCTCAAC | -0.128

Row | Sequence | PBM E-score
151 | AGCAGGAT | -0.0352
152 | ACCCCCGC | -0.282
153 | ACATTCGA | 0.139
154 | ATAATAAT | 0.169
155 | GGCTGCAC | -0.107
156 | GGCATTAA | -0.0574
157 | GATGCTTA | -0.0375
158 | AGTCAACC | -0.25
159 | GCGCAGAA | 0.0474
160 | AAGTATCT | 0.00333
161 | ATGTTTAC | -0.0971
162 | CACGTCAG | -0.0844
163 | ATAACTAA | 0.0832
164 | CGTAGGAG | -0.132
165 | ACTGGTCC | -0.0866
166 | GGAGGTGA | -0.0056
167 | TCCATCAA | 0.145
168 | AAACCTTG | -0.143
169 | CCACGAAG | -0.0733
170 | ATCCGAGC | 0.0585
171 | CTTTACCA | -0.08
172 | CCGTGCCG | -0.00474
